{"source": "PubChem BioAssay AID1345083", "about": "(National Center for Advancing Translational Sciences (NCATS), 2018)", "note": "“And” between values parts separate entries of the source, which are not always exact repeats. Identical values can stand only once. Among all 94,000 compounds or so, about 6,200 (6.6%) were called active. Inconclusive means that the source gave no clear call. Such entries were picked first, then a sample of the others. Calls come from the whole dose curve; as a rule, active = well fitted inhibition curve with a large enough effect; inconclusive = small, poorly fitted or top-dose-only effect; inactive = flat fitted curve, though single readings scatter. Potencies of inconclusive entries are doubtful fits and often do not repeat. % is set by controls: 0 for no effect and ±100 for the full control effect; potency is the fitted concentration of half-maximal effect; tags give direction and shape of the fitted curve.", "data": [{"assay": "Cytotoxic Profiling in HEK 293 Cell Line of Diverse Libraries Using Quantitative High-Throughput Screening; note: nearly all actives have a fitted effect of over 60% in size", "details": "HEK 293 viability, ATP luminescence (CellTiter-Glo), 48-72 h; activity change, negative = cytotoxicity: at 115 µM (top of the series) unless noted; series mostly up to 115 µM", "outline": "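ATP-coupled CellTiter-Glo luminescence served as viability read-out, recorded 10 min after reagent addition at room temperature. HEK 293 cells, 250 cells/well, had been incubated with pintool-transferred compound for 48 or 72 hr at 37 degree Celsius.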", "values": [{"smiles": "FC(F)(F)Oc1ccc(CNC2(Cc3cc(-c4ccccn4)on3)COC2)cc1", "Potency": "inconclusive: 100 µM [inhibitor, partial curve]"}, {"smiles": "Cc1cc2cc(-c3c(C)noc3C)nc(Nc3ccn(C)n3)c2o1", "Potency": "inconclusive: 12.6 µM [inhibitor, full curve, poor fit]"}, {"smiles": "O=C(C1CCOCC1)N1CCC2(CC1)CC(N(Cc1ccc(F)cc1)C1CC1)CCO2", "note": "(stereo not drawn)", "Potency": "inconclusive: 56.2 µM [inhibitor, single point]"}, {"smiles": "COc1cccc(CNC(=O)Cn2ccn3nc(-c4ccc(F)cc4)c(CO)c3c2=O)c1", "activity change, negative = cytotoxicity": "inactive: -4.92%"}, {"smiles": "O=C([C@@H]1C[C@H](F)CN1C(=O)Nc1cccc(Cl)c1)N1CCCCC1", "activity change, negative = cytotoxicity": "inactive: 5.11%"}, {"smiles": "Cn1nccc1C(=O)N1CC(COc2ccccc2)C2(C1)CN(c1ccccc1)C2", "note": "(stereo not drawn)", "Potency": "inconclusive: 100 µM [inhibitor, partial curve, poor fit]"}, {"smiles": "CC(C)Oc1ccc(CN2CCCC(COc3ccccc3C(=O)N3CCCC3)C2)cc1", "note": "(stereo not drawn)", "Potency": "active: 39.8 µM"}, {"smiles": "CNC(=O)c1cccc(-c2cnc3[nH]cc(CC(=O)N4CCCC4)c3c2)c1", "Potency": "inconclusive: 100 µM [inhibitor, partial curve]"}, {"smiles": "CC(C)NC(=O)c1ccccc1OCC1CCCN(Cc2cn(C)c3ccccc23)C1", "note": "(stereo not drawn)", "Potency": "inconclusive: 56.2 µM [inhibitor, partial curve, poor fit]"}, {"smiles": "O=C(Nc1ccc2ncnc(N3CCCCC3)c2c1)c1cccc(Cl)c1", "Potency": "inconclusive: 44.7 µM [inhibitor, partial curve, poor fit]"}, {"smiles": "O=C(c1ccccc1Cl)N1CCC(C(=O)N2CCCC(c3nc4ccncc4[nH]3)C2)CC1", "note": "(stereo not drawn)", "activity change, negative = cytotoxicity": "inactive: 1.51%"}, {"smiles": "CCOc1ccc(NC(=O)COc2ccc(-c3nnc4n3CCCC4)cc2)cc1", "activity change, negative = cytotoxicity": "inactive: 8.34%"}, {"smiles": "O=C(c1ccc2nccn2c1)N(Cc1c(F)cccc1Cl)C1CC1", "activity change, negative = cytotoxicity": "inactive: -24.4%"}, {"smiles": "O=C1Nc2ccccc2CC12CCN(Cc1ccccc1)CC2", "activity change, negative = cytotoxicity": "inactive: -1.1% [at 172 µM]"}, {"smiles": "COc1ccc(-c2ccc(C(=O)NC3CC(c4cc(=O)[nH]c(N)n4)C3)o2)cc1", "note": "(stereo not drawn)", "Potency": "inconclusive: 89.1 µM [inhibitor, partial curve, poor fit]"}, {"smiles": "CCN(CC)C(=O)c1coc(COc2ccc3c(c2)C(c2cccc(F)c2)N(C(=O)C(C)C)CC3)n1", "note": "(stereo not drawn)", "Potency": "inconclusive: 10 µM [inhibitor, full curve, poor fit]"}, {"smiles": "O=C(NC1CCN(Cc2cccc(-c3ccc(F)cc3F)c2)CC1)c1ccncc1", "Potency": "active: 39.8 µM and active: 31.6 µM"}, {"smiles": "COc1cccc(C(=O)NCCC2CCN(C(=O)Nc3ccc(C)c(F)c3)CC2)c1", "Potency": "inconclusive: 89.1 µM [inhibitor, single point]"}, {"smiles": "CN(C)C[C@@H]1CN(Cc2ccccc2)C[C@H]1N", "Potency": "inconclusive: 89.1 µM [inhibitor, single point]"}, {"smiles": "CC(=O)Nc1cccc(-c2ncc3c(n2)OCCN(CC2CC2)C3=O)c1", "activity change, negative = cytotoxicity": "inactive: -8.65% [at 172 µM]"}, {"smiles": "CSCCNC(=O)c1cc(-c2cccc(C(F)(F)F)c2)c2cccn2n1", "Potency": "inconclusive: 15.8 µM [inhibitor, partial curve, poor fit]"}, {"smiles": "Fc1cc(F)cc(Cc2nc3nccc(-c4cccs4)n3n2)c1", "Potency": "inconclusive: 79.4 µM [inhibitor, partial curve, poor fit]"}, {"smiles": "O=C(NC[C@H]1COCc2nc3cc(C(F)(F)F)ccc3n21)c1ccccn1", "activity change, negative = cytotoxicity": "inactive: -19.7% [at 172 µM]"}, {"smiles": "O=C(NCCCc1ccccc1)c1n[nH]c2c1CN(C(=O)c1ccccc1Cl)CC2", "Potency": "inconclusive: 79.4 µM [inhibitor, partial curve]"}, {"smiles": "CCCN1CCC2(CCN(C(=O)OC)CC2)Oc2ccccc21", "Potency": "active: 100 µM"}, {"smiles": "CC(C)CCN1CCCC12Cc1ccccc1CNC2=O", "note": "(stereo not drawn)", "activity change, negative = cytotoxicity": "inactive: -21.2% [at 172 µM]"}, {"smiles": "COc1ccc(-c2cc(C(=O)NCc3ccc4c(c3)OCO4)c3cnn(C)c3n2)cc1", "Potency": "inconclusive: 35.5 µM [inhibitor, partial curve]"}, {"smiles": "O=C(Nc1ccc2c(N3CCOCC3)ncnc2c1)c1cccc(Cl)c1", "Potency": "inconclusive: 12.6 µM [inhibitor, partial curve, poor fit]"}, {"smiles": "CN1C(=O)COC[C@@H]1[C@H](O)c1ccc(NC(=O)c2ccc(F)c(Cl)c2)cc1", "Potency": "inconclusive: 100 µM [inhibitor, partial curve]"}, {"smiles": "Cc1ccc(C)c(S(=O)(=O)N2CCCN(C)c3ccccc32)c1", "Potency": "inconclusive: 39.8 µM [inhibitor, partial curve, poor fit]"}, {"smiles": "O=C1C(N2CCN(S(=O)(=O)c3ccc(F)cc3F)CC2)CCN1Cc1ccccn1", "note": "(stereo not drawn)", "activity change, negative = cytotoxicity": "inactive: 1.55%"}, {"smiles": "COCCc1noc(-c2ccc(N(C)Cc3ccnc(C)c3)nc2)n1", "Potency": "inconclusive: 39.8 µM [inhibitor, partial curve, poor fit]"}, {"smiles": "Cc1ccc(S(=O)(=O)Nc2ccc(C)n(CC(=O)NC(C)c3ccccc3)c2=O)cc1", "note": "(stereo not drawn)", "activity change, negative = cytotoxicity": "inactive: 7.97%"}, {"smiles": "CCCC(=O)Nc1ccccc1-c1cccc(NC(C)=O)c1", "activity change, negative = cytotoxicity": "inactive: 2.06%"}, {"smiles": "O=C1CC2(CCN(C(=O)C3CCCN3[S+](=O)([O-])c3cccs3)CC2)Oc2ccccc2N1", "note": "(stereo not drawn)", "Potency": "inconclusive: 79.4 µM [inhibitor, partial curve]"}, {"smiles": "O=C(COc1ccccc1)Nc1ccc([C@@H](O)[C@H]2COCC(=O)N2CC2CC2)cc1", "Potency": "inconclusive: 126 µM [inhibitor, single point]"}, {"smiles": "CCCCCC(=O)Nc1nc2c(s1)C[C@@H]1[C@](C)(CO)[C@H](O)CC[C@@]1(C)[C@@H]2CC(=O)N1CCCCC1", "Potency": "inconclusive: 89.1 µM [inhibitor, single point]"}, {"smiles": "O=C(C[C@@H]1CCNC[C@@H]1Cc1cc(COc2ccccc2)on1)NCc1cccnc1", "activity change, negative = cytotoxicity": "inactive: -14.6% [at 172 µM]"}, {"smiles": "COCC1CCCN(Cc2nc(-c3ccccc3Cl)oc2C)C1", "note": "(stereo not drawn)", "activity change, negative = cytotoxicity": "inactive: -1.33%"}, {"smiles": "COc1ccccc1C(=O)N1CCC2(CC1)CC(=O)c1ccc(Cl)cc1O2", "Potency": "inconclusive: 50.1 µM [inhibitor, partial curve, poor fit]"}, {"smiles": "CC(C)c1noc([C@@H]2Cc3nc[nH]c3CN2C(=O)Nc2ccc(Cl)cc2)n1", "Potency": "active: 100 µM"}, {"smiles": "CCOc1cc(=O)n2c(c1C(=O)NCCc1ccc(OC)c(OC)c1)CCCC2", "activity change, negative = cytotoxicity": "inactive: 5.16%"}, {"smiles": "COc1ccc(Cl)cc1C(=O)N1CCCN(c2cc(-c3ccccc3)[nH]n2)CC1", "Potency": "inconclusive: 50.1 µM [inhibitor, partial curve, poor fit]"}]}]}
